Source: PubChem BioAssay AID1347165 (National Center for Advancing Translational Sciences (NCATS), 2019)
About 5,700 (2.6%) of roughly 220,000 compounds were called active. The inconclusive results got no clear call from the source; some entries with a clear call stand among them for comparison. Calls follow the shape of the dose curve; as a rule, active = well fitted inhibition curve with a large enough effect; inconclusive = small, poorly fitted or top-dose-only effect; inactive = no such curve, though single readings can be large or run the other way. Where the call is inconclusive, the potency comes from a doubtful curve fit.

Target: Lysine-specific demethylase 5B (Homo sapiens) (UniProt Q9UGL1)
UniProt Q9UGL1, sequence (Q9UGL1 whole entry, looked up): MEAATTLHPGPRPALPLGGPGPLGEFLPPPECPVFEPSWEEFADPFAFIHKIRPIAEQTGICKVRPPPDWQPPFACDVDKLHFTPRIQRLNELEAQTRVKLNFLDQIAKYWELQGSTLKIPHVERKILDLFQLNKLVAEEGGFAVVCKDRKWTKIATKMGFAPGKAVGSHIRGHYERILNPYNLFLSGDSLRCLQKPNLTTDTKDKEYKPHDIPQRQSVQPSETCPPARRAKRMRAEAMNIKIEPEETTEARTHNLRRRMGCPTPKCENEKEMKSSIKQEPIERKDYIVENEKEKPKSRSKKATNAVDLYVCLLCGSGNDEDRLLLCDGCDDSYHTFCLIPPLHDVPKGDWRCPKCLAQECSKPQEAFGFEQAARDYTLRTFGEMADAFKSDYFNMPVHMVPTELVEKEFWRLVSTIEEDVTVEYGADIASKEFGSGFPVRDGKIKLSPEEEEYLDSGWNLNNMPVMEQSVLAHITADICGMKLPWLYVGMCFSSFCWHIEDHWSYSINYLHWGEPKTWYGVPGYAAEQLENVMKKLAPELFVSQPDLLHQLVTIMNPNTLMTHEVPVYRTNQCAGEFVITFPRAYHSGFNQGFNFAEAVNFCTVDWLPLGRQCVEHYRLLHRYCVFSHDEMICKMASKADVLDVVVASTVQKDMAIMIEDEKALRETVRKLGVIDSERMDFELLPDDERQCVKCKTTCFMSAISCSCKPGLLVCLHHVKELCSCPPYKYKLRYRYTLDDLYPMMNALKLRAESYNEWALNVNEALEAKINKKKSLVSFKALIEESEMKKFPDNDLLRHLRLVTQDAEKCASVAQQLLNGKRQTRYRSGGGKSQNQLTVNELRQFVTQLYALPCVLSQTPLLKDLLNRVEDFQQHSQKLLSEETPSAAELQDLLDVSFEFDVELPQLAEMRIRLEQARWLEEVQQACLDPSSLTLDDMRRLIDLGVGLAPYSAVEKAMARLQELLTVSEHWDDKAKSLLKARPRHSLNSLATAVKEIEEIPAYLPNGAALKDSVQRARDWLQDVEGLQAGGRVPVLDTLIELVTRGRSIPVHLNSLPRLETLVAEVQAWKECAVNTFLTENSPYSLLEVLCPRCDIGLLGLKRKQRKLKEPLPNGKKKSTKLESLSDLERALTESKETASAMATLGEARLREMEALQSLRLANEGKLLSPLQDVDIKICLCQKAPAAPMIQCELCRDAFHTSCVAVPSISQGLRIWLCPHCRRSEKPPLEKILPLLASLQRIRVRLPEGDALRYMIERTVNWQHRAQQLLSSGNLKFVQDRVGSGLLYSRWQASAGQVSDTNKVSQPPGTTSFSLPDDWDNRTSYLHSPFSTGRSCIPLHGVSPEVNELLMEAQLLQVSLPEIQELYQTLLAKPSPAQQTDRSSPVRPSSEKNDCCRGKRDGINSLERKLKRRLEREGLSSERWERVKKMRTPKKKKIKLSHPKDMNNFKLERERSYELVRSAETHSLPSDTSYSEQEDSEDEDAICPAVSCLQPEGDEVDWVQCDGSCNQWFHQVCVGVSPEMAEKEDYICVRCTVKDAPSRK
Assay: Primary screen for KDM5B Histone Demethylases FDH-coupled qHTS; also: nearly all actives have a fitted effect of over 70% in size; as to activity change, negative = inhibition: 0% is about no effect
Details: FDH-coupled NADH fluorescence (FDH is formaldehyde dehydrogenase); activity change, negative = inhibition: at 57.7 µM (top of the series) unless noted
How it was run: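 Inhibition is measured as reduced NADH fluorescence generation from FDH coupling to formaldehyde release. Truncated KDM5BΔAP at 200 nM final acts on H3K4me3 peptide (12.5 µM in substrate mix) in pH 7.5 HEPES buffer with Tween-20, 30 min, room temperature.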
Potency is read from the fitted curve at half-maximal effect; tags tell the direction and shape of the fitted curve.

Structure (SMILES) | Potency | activity change, negative = inhibition
CCc1cccc(C)c1NC(=O)Cn1ccn2nc3c(c2c1=O)CCCC3 | inconclusive: 28.2 µM [inhibitor, single point] | 
CCN1C(=O)C2CC3(CCN(Cc4cn(C)c5ccc(OC)cc45)CC3)CN2C1=O (configuration not stated) | inactive | 
Cc1ccc(C(=O)/C=C/c2cccc3ccccc23)cc1[N+](=O)[O-] | inactive | 
Cc1ccc(CC(=O)Nc2c(C(=O)N3CCN(c4ccccc4)CC3)oc3ccccc23)cc1 | inconclusive: 10 µM [inhibitor, partial curve, poor fit] | 
CN(C)c1ccc(-c2noc([C@@H]3CCCN3Cc3ccc(CO)o3)n2)cn1 | inconclusive: 39.8 µM [inhibitor, partial curve, poor fit] | 
COc1ccc(C(=O)N2CCCN(c3cc(-c4ccc(F)cc4)[nH]n3)CC2)cc1 | inconclusive: 20 µM [inhibitor, partial curve, poor fit] | 
Cc1ncc2c(c1CNC(=O)CN1C(=O)NC(C)(C)C1=O)CCNC2 | inconclusive: 22.4 µM [inhibitor, partial curve, poor fit] | 
O=C(O)CSc1nnc(-c2ccc(O)cc2)o1 | inconclusive: 28.2 µM [inhibitor, partial curve, poor fit] | 
O=C(Nc1ccccc1)N1CCN(c2cnccn2)CC1 | inconclusive: 25.1 µM [inhibitor, single point] | 
Cc1oc(-c2nc(C#N)c(NC(C)c3ccccc3)o2)cc1S(=O)(=O)N1CCOCC1 (configuration not stated) | inconclusive: 1.78 µM [inhibitor, full curve, poor fit] | 
CC(=O)Nc1cccc(-c2cc3c(ccn3Cc3ccncc3)c(N3CCOCC3)n2)c1 | active: 28.2 µM | 
Cn1c2c(c3ccccc31)CN(C(=O)Nc1ccc(Cl)cc1Cl)CC2 | active: 22.4 µM | 
CCCOc1ccc(CN2CCC(C3CCN(C(C)=O)CC3)C2)cc1 (configuration not stated) | inconclusive: 28.2 µM [inhibitor, partial curve] | 
Cc1nc(N/C(N)=N/S(=O)(=O)c2ccccc2)nc2ccccc12 | inconclusive: 39.8 µM [inhibitor, single point] | 
CN(C)C(=O)N1CCN(c2nc3ncccc3o2)CC1 | inconclusive: 31.6 µM [inhibitor, single point] | 
CCOc1ccc(-c2cc(C(=O)NCCc3ccccc3)c3c(-c4ccc(C)cc4)[nH]nc3n2)cc1 |  | inconclusive: -33.5% [inhibitor]
O=C(c1ccncc1)N1CCC(C2CCN(Cc3ccccn3)C2)CC1 (configuration not stated) | inconclusive: 25.1 µM [inhibitor, single point] | 
O=C(Nc1cccc(C(F)(F)F)c1)c1cnc2c(c1)N(C(=O)Cc1cccc(C(F)(F)F)c1)CCC2 | inconclusive: 17.8 µM [inhibitor, partial curve] | 
COc1cccc(NC(=O)c2nn(-c3cccc(OC)c3)c(=O)c3ccccc23)c1 | inactive | 
Cc1ccc(Oc2nc3ccccn3c(=O)c2/C=C(\C#N)c2nc3ccccc3s2)c(C)c1 | inconclusive: 14.1 µM [inhibitor, partial curve, poor fit] | 
CCN(CC)c1cc(C)c2cc(NC(=O)/C=C/c3ccccc3OC(C)C)ccc2n1 | inconclusive: 25.1 µM [inhibitor, single point] | 
COc1cc(/C=N\Nc2nc(-c3cccs3)c(NC(C)=O)s2)ccc1O | inconclusive: 39.8 µM [inhibitor, single point] | 
CCOc1ccccc1CN1CC(C(=O)NCc2ccncc2)C2(CCOCC2)C1 (configuration not stated) | inconclusive: 39.8 µM [inhibitor, single point] | 

Structure (SMILES) | Potency | activity change, negative = inhibition
O=C(NCCN1CCCCC1)C(=O)Nc1cccc(N2CCCS2(=O)=O)c1 | inactive | 
Cc1ccnc(NC(=O)C2CC(=O)N(c3n[nH]c4ccccc34)C2)c1 (configuration not stated) | inactive | 
Cn1ncc(N2CCOC(CCNc3cnc4ccccc4n3)C2)cc1=O (configuration not stated) | active: 31.6 µM | 
CC(C)c1cccc(NC(=O)c2cc3n(n2)CC(c2ccc(Cl)cc2)OC3)c1 (configuration not stated) | inconclusive: 28.2 µM [inhibitor, single point] | 
COc1ccc(-c2cn(C)c(=O)n3cc(CN4CCNC(=O)C4)nc23)cc1 | active: 28.2 µM | 
COc1ccc(/C=C(/C#N)c2ccccn2)cc1F | inactive | 
CN1CCN(Cc2ncc[nH]2)CC12CCC(=O)N(CC(=O)O)CC2 (configuration not stated) | inactive | 
Cc1noc(-c2cccs2)c1C(=O)NCCc1cccs1 | inconclusive: 28.2 µM [inhibitor, single point] | 
Cc1nc(-c2ccc(S(=O)(=O)N(Cc3ccccc3)C(C)C)cc2)co1 | inconclusive: 17.8 µM [inhibitor, partial curve, poor fit] | 
COc1cccc(CN2Cc3nc(-c4ccsc4)ccc3OCC2=O)c1 | inconclusive: 25.1 µM [inhibitor, single point] | 
Cn1cc(C(=O)Nc2ccc(C#N)cc2)c2ccccc2c1=O | inconclusive: 2 µM [inhibitor, partial curve, poor fit] | 
COc1ccc(C(=O)NC2CCN(c3cc(-c4ccccc4)[nH]n3)C2)cc1OC (configuration not stated) | inconclusive: 10 µM [inhibitor, partial curve] | 
N#Cc1cccc(N2CCC3(CCC(=O)N(CC4CCCO4)C3)CC2)n1 (configuration not stated) | active: 25.1 µM | 
CN(Cc1ccc(F)cc1)C(=O)Cn1nc(C(N)=O)c2ccccc2c1=O | inactive | 
Cc1oc(-c2ccc(C(=O)NCc3ccccc3F)cc2)nc1COc1ccccc1 | inconclusive: 39.8 µM [inhibitor, partial curve, poor fit] | 
CCOC(=O)c1ccc(NC(=O)c2ncoc2-c2ccc(OC)c(OC)c2)cc1 | inconclusive: 1.78 µM [inhibitor, partial curve, poor fit] | 
CCN(CC)c1ccc(NC(=O)CN2CCN(S(=O)(=O)c3cc(Cl)ccc3OC)CC2)cc1 | inconclusive: 28.2 µM [inhibitor, single point] | 
O=C(Cn1ccn2nc(-c3ccc(F)cc3)c(CO)c2c1=O)NCCCc1ccccc1 | inconclusive: 28.2 µM [inhibitor, single point] | 
CNc1ccc(C)cc1C(=O)N1CCN(C)C2(CCN(C)CC2)C1 | active: 20 µM | 
COc1ccccc1C(=O)Nc1ccc2oc(-c3ccccc3F)cc(=O)c2c1 | inactive | 
Cc1cc(C)nc(NS(=O)(=O)c2ccc(NC(=O)c3nc(SC(C)C)ncc3Cl)cc2)n1 | inconclusive: 28.2 µM [inhibitor, single point] | 
COc1cn(CC(=O)Nc2ccc(C(F)(F)F)cc2)c(CN2CCOCC2)cc1=O | inactive | 
CCC12CN3CC(CC)(CN(C1)C3c1ccco1)C2=O (configuration not stated) | inactive | 

Structure (SMILES) | Potency | activity change, negative = inhibition
CCc1cccc2c(C(CC(=O)NCCc3ccccc3)c3cccc4c3OCO4)c[nH]c12 (configuration not stated) | inconclusive: 15.8 µM [inhibitor, single point] | 
O=C(CCS(=O)(=O)c1nc(-c2cccs2)cc(C(F)(F)F)n1)Nc1ccc(F)c(Cl)c1 | inconclusive: 25.1 µM [inhibitor, partial curve, poor fit] | 
Cc1noc(C)c1CCCNC(=O)c1ccc(N2CCC[C@H]2CO)nc1 | inactive | 
O=C1CCCN1c1cccc(-c2csc(-c3ccsc3)n2)c1 | inactive | 
N#Cc1c(-c2cccs2)cc(-c2cccs2)[nH]c1=O | inconclusive: 25.1 µM [inhibitor, partial curve, poor fit] | 
CC[C@@]1(O)CCN(C(=O)CCc2nc(-c3ccco3)no2)C[C@H]1O | inconclusive: 22.4 µM [inhibitor, partial curve] | 
Cc1cc(=S)n2cn[nH]c2n1 | inactive | 
COc1cccc(C(=O)N2CCCC3(C2)Nc2cccnc2NC3=NCc2ccccc2)c1 (configuration not stated) | active: 28.2 µM | 
Cc1ccc(-c2cc(=O)c3ccc4ccccc4c3o2)cc1 | inconclusive: 1.78 µM [inhibitor, partial curve, poor fit] | 
CC(C)c1nc2c(c(-c3ccc(O)cc3)n1)CCN(Cc1ccccc1C(F)(F)F)CC2 | inactive | 
Cn1c(=O)[nH]c(=O)c2c1nc(Cl)n2Cc1ccccc1 | inactive | 
O=C(/C=C/c1cccc2ccccc12)N(Cc1cccs1)C1CC1 | inconclusive: 39.8 µM [inhibitor, single point] | 
CC(C)C(=O)Nc1ccc(C2OC(=O)N(Cc3ccc(F)cc3)C2C(=O)NC2CC2)cc1 (configuration not stated) | inconclusive: 25.1 µM [inhibitor, single point] | 
Cc1ccc(C(=O)/C=C/c2ccc(-c3ccccc3Br)o2)cc1 | inconclusive: 25.1 µM [inhibitor, partial curve, poor fit] | 
COc1cccc(NC(=O)N[C@H]2C[C@@H](C(=O)N[C@@H](CC(C)C)C(N)=O)N(C(=O)CC(C)(C)C)C2)c1 | inconclusive: 31.6 µM [inhibitor, partial curve, poor fit] | 
O=C(NCc1ccc(Cl)cc1)C1CCN(C(=O)c2ncn3c2COC(c2ccccc2)C3)CC1 (configuration not stated) | inactive | 
Clc1ccc(CSc2nc3ncccc3[nH]2)cc1Cl | inactive | 
C(Cc1noc(C2CNC2)n1)OCC1CC1 | inconclusive: 25.1 µM [inhibitor, single point] | 
CS(=O)(=O)Oc1ccc2c(c1)O/C(=C/c1cccnc1)C2=O | inconclusive: 35.5 µM [inhibitor, partial curve, poor fit] | 
COc1ccc(N2C(=O)C(C)CS2(=O)=O)cc1S(=O)(=O)N1CCCc2ccccc21 (configuration not stated) | inconclusive: 39.8 µM [inhibitor, single point] | 
CCOC(=O)c1ccc(NC(=O)COc2cccc3c(=O)n(C)ccc23)cc1 | inconclusive: 11.2 µM [inhibitor, partial curve, poor fit] | 
